Results as given in PubChem BioAssay AID686978 (National Center for Advancing Translational Sciences (NCATS), 2013).
Where “and” joins values, the source holds several entries; their conditions need not be identical. Equal entries are not always repeated. Hit rate of the full screen: of about 420,000 compounds, about 64,000 (15%) were called active. The inconclusive results got no clear call from the source; some entries with a clear call stand among them for comparison. Calls follow the shape of the dose curve; as a rule, active = well fitted inhibition curve with a large enough effect; inconclusive = small, poorly fitted or top-dose-only effect; inactive = flat fitted curve, though single readings scatter. Where the call is inconclusive, the potency comes from a doubtful curve fit.
% is scaled to controls: 0 for no effect and ±100 for the full control effect; potency is read from the fitted curve at half-maximal effect; tags tell the direction and shape of the fitted curve.

Experiment: qHTS for Inhibitors of human tyrosyl-DNA phosphodiesterase 1 (TDP1): qHTS in cells in absence of CPT; also: nearly all actives have a fitted effect of over 55% in size
Details: DT40 Tdp1-/- hTDP1 cells, no CPT, ATP luminescence, 48 h; activity change, negative = growth inhibition: at 46.2 µM (top of the series) unless noted
Summary of the method: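 A cellular qHTS used chicken DT40 cells lacking endogenous Tdp1 but carrying stably transfected human TDP1. Compounds were applied without camptothecin, and cell growth kinetics were judged by ATP-dependent luminescence after ≥48 hr.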
With `Brc1ccc(-c2nnc3c4ccccc4nc(N4CCOCC4)n23)cc1` the Potency was inconclusive: 11.6 µM [inhibitor, partial curve].
With `O=C(CCCOc1ccccc1)NNC(=O)c1ccc(Cl)cc1` the Potency was “inactive”.
With `COc1cc(C(=O)NC(=S)Nc2ccc3ccccc3c2)cc(OC)c1OC` the Potency was active: 23.1 µM.
In the case of `COc1ccc(NS(=O)(=O)c2cc(C(=O)N3CCN(C/C=C/c4ccccc4)CC3)ccc2C)cc1`, the Potency is reported as inconclusive: 25.9 µM [inhibitor, single point].
For `O=C1C=C(NCc2ccco2)CC(c2ccc(Cl)cc2)C1` (centres undefined), the Potency was inconclusive: 20.6 µM [inhibitor, partial curve].
For `CC1=C(C(=O)N2CCOCC2)CC(CC(=O)NC2CC2)C(=O)N1Cc1ccc(F)cc1` (centres undefined), the Potency was “inactive”.
With `CCOc1cc(/C=N/n2c(COc3ccccc3)n[nH]c2=S)ccc1O` the activity change, negative = growth inhibition was inconclusive: -32.1% [inhibitor].
In the case of `CCCNC(=O)c1ccc2c(c1)ncn2-c1ccc(C)cc1C`, the Potency is reported as inconclusive: 18.4 µM [inhibitor, single point].
For `COc1ccc(NC(=O)Cn2c(=O)oc3cc(S(=O)(=O)NC4CCCC4)ccc32)cc1OC`, the Potency was active: 20.6 µM.
With `COc1ccc(-c2c3c(nc4sc5c(Cl)nc(C)nc5c24)CCC3)cc1` the Potency was “inactive”.
With `Cc1onc(-c2ccccc2)c1C(=O)N/N=C/c1cc(Br)c(Br)o1` the Potency was inconclusive: 25.9 µM [inhibitor, single point].
For `Cc1onc(-c2ccc(Cl)cc2Cl)c1-c1csc(N/N=C/c2ccccc2)n1`, the Potency was inconclusive: 29.1 µM [inhibitor, single point].
In the case of `O=C(c1ccco1)N1N=C(c2ccco2)CC1c1ccc(Cl)cc1Cl` (centres undefined), the Potency is reported as inconclusive: 20.6 µM [inhibitor, partial curve].
With `CN(C)CCNC(=O)c1ccc(-n2c(-c3ccccc3)cc3c2CCCC3)cc1` the Potency was active: 16.4 µM.
In the case of `C/C(=N/NS(=O)(=O)c1cccc([N+](=O)[O-])c1)c1ccncc1`, the Potency is reported as inconclusive: 18.4 µM [inhibitor, single point].
In the case of `CC(C)(C)c1cc(CCC(=O)N2CCNCC2)c(C(C)(C)C)cc1O`, the Potency is reported as inconclusive: 23.1 µM [inhibitor, single point].
In the case of `CC(CN(C)C)CN1c2ccccc2CCc2ccccc21` (centres undefined), the Potency is reported as inconclusive: 12.8 µM [inhibitor, single point] and inconclusive: 23.1 µM [inhibitor, single point].
With `COc1ccc(NC(=O)CSCC(=O)Nc2cc(Cl)ccc2N2CCCC2)cc1` the Potency was “inactive”.
With `CC1c2[nH]c3ccccc3c2CCN1C(=O)Nc1ccccc1` (centres undefined) the Potency was active: 23.1 µM.
